Results reported in the RNAGym collection of RNA variant scans (doi:10.7554/elife.90254).
Read counts are not given, so values of variants with three or more changes are uncertain.

B1: LINE1-full (parent)
chain: UACGUAGGUGGUUUUCCCCUGAUAGUGCUAAGGGGGCCUGGAAGUUUGGACUGGGCAGAGCUCAACACAGCGUGGCAAAGUGGCUGUGGCUAGACUGCCUCUCUGGAUUCCUCGUCACUCAGCAGGGCAUCUCUGAGAGAAAUGCC

Variants of: B1
Experiment: self-cleavage, relative activity (ratio to wild type); higher = more cleavage; in vitro, sequencing; the parent is a self-cleaving ribozyme

Variant | self-cleavage
UACGUAGGUGGUUUUCCCCUGAUAGUGCUAAGGGGGCCUGGAAGUUUGGACUGGGCAGGGCUCAACACAGCGUGGCGAAGUGGCUGUGGCUAGACUGCCUCUCUGGAUUCCUCGUCUCUCAGCAGGGCAUCUCUGAGAGAAAUGCC [A59G A77G A117U] | 0.35
UACGUAGGUGGUUUUCCCCUGAUAGUGCUAAGGGGGCCUGGAAGUUUGGACUGGGCAGGGCUCAACACAGCGUGGCAAAGUGGCUGUGGCUAGACUGCCUCUCUGGAUUCCUAGUCUCUCAGCAGGGCAUCUCUGAGAGAAAUGCC [A59G C113A A117U] | 0.07
UACGUAGGUGGUUUUCCCCUGAUAGUGCUAAGGGGGCCUGGAAGUUUGGACUGGGCAGGGCUCAACACAGCGUGGCAAAGUGGCUGUGGCUAGACUGCCUCUCUGGAUUCCUCGUCAUUCAGCAGGGCAACUCUGAGAGAAAUGCC [A59G C118U U130A] | 0.17
UACGUAGGUGGUUUUCCCCUGAUAGUGCUAAGGGGGCCUGGAAGUUUGGACUGGGCAGGGCUCAACACAGCGUGGCAAAGUGGCUGUGGCUAGACUGCAUCUCUGGAUUCCUCGUCACUCAGCAGGGCAUCCCUGAGAGAAAUGCC [A59G C99A U132C] | 0.03
UACGUAGGUGGUUUUCCCCUGAUAGUGCUAAGGGGGCCUGGAAGUUUGGACUGGGCAGGGCUCAACACAGCGUGGCAAAGCGGCUGUGGCUAGACUGCCUCUCUGGAUUCCUCGUCACUCAGCAGGGCAUCUCUGAGGGAAAUGCC [A59G U81C A138G] | 0
UACGUAGGUGGUUUUCCCCUGAUAGUGCUAAGGGGGCCUGGAAGUUUGGACUGGGCAGGGCUCAACACAGCGUGGCAAAGUGGCUGUGGCUAGACAGCCUCUCUGGAUUCCCCGUCACUCAGCGGGGCAUCUCUGAGAGAAAUGCC [A59G U96A U112C A124G] | 0
UACGUAGGUGGUUUUCCCCUGAUAGUGCUAAGGGGGCCUGGAAGUUUGGACUGGGCAGGGCUCAACACAGCGUGGCAACGUGGCUGUGGCUAGACUGCCUCUCUGGAUUCCUCGUCACUCAGCAGGGCAUCUCUGAGGGAAAUGCC [A59G A79C A138G] | 0
UACGUAGGUGGUUUUCCCCUGAUAGUGCUAAGGGGGCCUGGAAGUUUGGACUGGGCAGUGCUCAACACGGCGUGGCAAAGUGGCUGUGGCUAGACUGCCUCUCUGGAUUCCUCAUCGCUCAGCAGGGCAUCUCUGAGAGAAAUGCC [A59U A69G G114A A117G] | 0.15
UACGUAGGUGGUUUUCCCCUGAUAGUGCUAAGGGGGCCUGGAAGUUUGGACUGGGCAGGGCUCAACACAGCGUGGCAAAGUGGCUGAGGCUAGACAGCCUCUCUGGAUUCCACGUCACUCAGCAGGGCAUCUCUGAGAGAAAUGCC [A59G U87A U96A U112A] | 0.04
UACGUAGGUGGUUUUCCCCUGAUAGUGCUAAGGGGGCCUGGAAGUUUGGACUGGGCAGGGCUCAACACAGCGUGGCAAAGUGGCUGUGGCUAGACUGCCUCUCUGGAUUCCUCGUCACUCAGCAGAGCAUCUCUGAGAGAGAUGCC [A59G G126A A141G] | 0.05
UACGUAGGUGGUUUUCCCCUGAUAGUGCUAAGGGGGCCUGGAAGUUUGGACUGGGCAGGGCUCAACACAGCGUGGCUAAGUGGCCGUGGCUAGACUGCCUCUCUGGAUUCCUCGUCACUCUGCAGGGCAUCUCUGAGAGAAAUGCC [A59G A77U U85C A121U] | 0
UACGUAGGUGGUUUUCCCCUGAUAGUGCUAAGGGGGCCUGGAAGUUUGGACUGGGCAGGGCUCAACACAGCGUGGCGAAGUGGCUGUGGCUAGACUGCCUCUCUGGAUUCCUCGUCACUCAGCAGGGCAUCUCUGAGAGGAAUGCC [A59G A77G A140G] | 0.6
UACGUAGGUGGUUUUCCCCUGAUAGUGCUAAGGGGGCCUGGAAGUUUGGACUGGGCAGGACUCAACACAGCGUGGCAAAGUGGCUGUGGCUAGACUGCCUCUCUGGAUUCCUCGUCCCUCAGCAGGGCAUCUCUGAGAGAAAUGCC [A59G G60A A117C] | 0
UACGUAGGUGGUUUUCCCCUGAUAGUGCUAAGGGGGCCUGGAAGUUUGGACUGGGCAGGGCUCAACACAGCGUGGCAGAGUAGCUGUGGCUAGACUACCUCUCUGGAUUCCUCGUCACCCAUCAGGGCAUCUCUGAGAGAAAUGCC [A59G A78G G82A G97A U119C G122U] | 0.03
UACGUAGGUGGUUUUCCCCUGAUAGUGCUAAGGGGGCCUGGAAGUUUGGACUGGGCAGGGCUCAACACAGCGUGGCAAAGUGGCUGUGGCUAGACUGCUUCUCUGGAUUCCUCGUCACUCAGCAGGGCAUCUCUGAGAGAGAUGCC [A59G C99U A141G] | 0.02
UACGUAGGUGGUUUUCCCCUGAUAGUGCUAAGGGGGCCUGGAAGUUUGGACUGGGCAGGGCUCAACACAGCGUGGCAAAGUGGCUGUGGCUAGACUGCCUUUCUGGAUUCCUCGUCACUCAGCAGGGCGUCUCUGAGAGAAAUGCC [A59G C101U A129G] | 0.02
UACGUAGGUGGUUUUCCCCUGAUAGUGCUAAGGGGGCCUGGAAGUUUGGACUGGGCAGGGCUCAACACUGCGUGGCAAAGUGGCUGUGGCUAGACUGCCUCUCUGGAUUCCCCGUCACUCAGCAGGGCAUCUCUGAGAGAAAUGCC [A59G A69U U112C] | 0.08
UACGUAGGUGGUUUUCCCCUGAUAGUGCUAAGGGGGCCUGGAAGUUUGGACUGGGCAGGGCUCAACACAGCGUGGCAAGGUGGCUGUGGCUAGACUGCCUCUCUGGAUUCCUCGUCACUCAGCAGGGCAUCUCUGAGAGAGAUGCC [A59G A79G A141G] | 0.25
UACGUAGGUGGUUUUCCCCUGAUAGUGCUAAGGGGGCCUGGAAGUUUGGACUGGGCAGUGCUCAACACUGCGUGGCAAAGUGGCCGUGGCUAGACUGCCUCUCUGGAUUCCUCGUCACUCAGCAGGGCAUCUCUGAGAGAAAUACC [A59U A69U U85C G144A] | 0.04
UACGUAGGUGGUUUUCCCCUGAUAGUGCUAAGGGGGCCUGGAAGUUUGGACUGGGCAGUGCUCAACACCGCGUGGCAAAGUGGCUGUGGCCAGACUGCCUCUCUGGAUUCCUCGUCACUCAGCAGGGCAUCUCUGAGAGAAAUGCC [A59U A69C U91C] | 0.08

Variant | self-cleavage
UACGUAGGUGGUUUUCCCCUGAUAGUGCUAAGGGGGCCUGGAAGUUUGGACUGGGCAGGGCUCAACACAGCGUGGCAAAGUGGCUGUGGCUAGUCUGCCUCUCCGGAUUCCUCGUCACUCAGCAGGGCAUCUCUGAGAGAAAUGCC [A59G A94U U104C] | 0.19
UACGUAGGUGGUUUUCCCCUGAUAGUGCUAAGGGGGCCUGGAAGUUUGGACUGGGCAGGGCUCAACACAGCAUGGCAAAGUGGCUGUGGCUAGGCUGCCUCUCUGGAUUCCUCAUCACUCAGCAGGGCAUCUCUGAGAGAAAUGCC [A59G G72A A94G G114A] | 0.1
UACGUAGGUGGUUUUCCCCUGAUAGUGCUAAGGGGGCCUGGAAGUUUGGACUGGGCAGGGCACAACACUGCGUGGCAAAGUGGCUGUGGCUAGACUGCCUCUCUGGAUUCCUCGUCACUCAGCAAGGCAUCUCUGAGAGAAAUGCC [A59G U62A A69U G125A] | 0.02
UACGUAGGUGGUUUUCCCCUGAUAGUGCUAAGGGGGCCUGGAAGUUUGGACUGGGCAGGGCUCAACACAGCGUGGCAAAGUGGUUGUGGCUAGACUGCCUCUCUGGAUUUCUCGACACUCAGCAGGGCAUCUCUGUGGGAAAUGCC [A59G C84U C110U U115A A136U A138G] | 0.01
UACGUAGGUGGUUUUCCCCUGAUAGUGCUAAGGGGGCCUGGAAGUUUGGACUGGGCAGUGCUCAACCCAGCGUGGCAAAGUGGCUGUGGCUAGACUGCAUCUCUGGAUUCCCCGUCACUCAGCAGGGCAUCUCUGAGAGAAAUGCC [A59U A67C C99A U112C] | 0.19
UACGUAGGUGGUUUUCCCCUGAUAGUGCUAAGGGGGCCUGGAAGUUUGGACUGGGCAGGGCUCAACACAGCGUGGCAAAGUGGCCGUGGCUAGACUGCCUCUCUUGAUUCCUUGUCACUCAGCAGGGCAUCUCUGAGAGAAAUGCC [A59G U85C G105U C113U] | 0.01
UACGUAGGUGGUUUUCCCCUGAUAGUGCUAAGGGGGCCUGGAAGUUUGGACUGGGCAGGGCUCAACACAGCGAGGCAAAGUGGCUGUGGCUAGACUGCCUCUCUGGUUUCCUCGUCACUCAGCAGGGCAUCUCUGAGAGAAAUGCC [A59G U73A A107U] | 0.07
UACGUAGGUGGUUUUCCCCUGAUAGUGCUAAGGGGGCCUGGAAGUUUGGACUGGGCAGGGCUCAACACAGCGUGGCAAAGUGGCUGUGGCUAGACCGCCUCUCUGGAUACCUCGUCACUCAGCAGGGCAUCUCUGAGAGAAAUGCC [A59G U96C U109A] | 0
UACGUAGGUGGUUUUCCCCUGAUAGUGCUAAGGGGGCCUGGAAGUUUGGACUGGGCAGGGCUCAAUACAGCGUGGCAAAGCGGCUGUGGCUAGACUGCCUCUCUGGAUUCCUCGUUACUCAGCAGGGCAUCUCUGAGAGAAAGGCC [A59G C66U U81C C116U U143G] | 0.03
UACGUAGGUGGUUUUCCCCUGAUAGUGCUAAGGGGGCCUGGAAGUUUGGACUGGGCAGGGCUCAACACAACGUGGCAAAGUGGCUGUGGCUAGACUGCCUCUCUGGAUCCCUCGUCACUCAGCAGGGCAUCUCUGAGAGAAACGCC [A59G G70A U109C U143C] | 0.01
UACGUAGGUGGUUUUCCCCUGAUAGUGCUAAGGGGGCCUGGAAGUUUGGACUGGGCAGGGCUCAACACAGCGUGGCAAAGUGGCUGUGGCUAGACUGCCUCUCUGGAUUCCUCAUCACUCAGCAGGGCAUCUCUGGGAGAAAUGCC [A59G G114A A136G] | 0.08
UACGUAGGUGGUUUUCCCCUGAUAGUGCUAAGGGGGCCUGGAAGUUUGGACUGGGCAGGGCUCAACACAGCGUGACAGAGUGGCUGUGGCAAGACUGCCUCUCUGGAUUCCUCGUCACUCAGCAGGGCAUCUCUGAGGGAAAUGCC [A59G G75A A78G U91A A138G] | 0.06
UACGUAGGUGGUUUUCCCCUGAUAGUGCUAAGGGGGCCUGGAAGUUUGGACUGGGCAGGGCUCAACACAGCGCGGCAAAGUGGCUGUGGCUAGACUGCCUCUCUGGAUUCCUCGUCACUCAGCAGGGCAUCUCUGAGAGAGAUGCC [A59G U73C A141G] | 0
UACGUAGGUGGUUUUCCCCUGAUAGUGCUAAGGGGGCCUGGAAGUUUGGACUGGGCAGGGCUCAACACAGCGUGGCAAAGUGGCUGUGGCUAGACUGCCUCUCUGGAUUCCUCGUCACUCCGCAGGGCAUCACUGAGAGAAAUGCC [A59G A121C U132A] | 0
UACGUAGGUGGUUUUCCCCUGAUAGUGCUAAGGGGGCCUGGAAGUUUGGACUGGGCAGUGCUCUACACAGCGUGGCAAAGUGGCUGUGGCUAGACUGCCUCUCUGGAUUCCUCGUCACUCAGCAGGGCAUCUCUGAGGGAAAUGCC [A59U A64U A138G] | 0.45
UACGUAGGUGGUUUUCCCCUGAUAGUGCUAAGGGGGCCUGGAAGUUUGGACUGGGCAGGGCUCAACAUAGCGUGGCAAAGUGGCUAUGGCUAGGCUGCCUCUCUGGAUUCCUCGUCACUCAGCAGGGCCUCUCUGAGAGAAAUGCC [A59G C68U G86A A94G A129C] | 0.05
UACGUAGGUGGUUUUCCCCUGAUAGUGCUAAGGGGGCCUGGAAGUUUGGACUGGGCAGGGCUCAACACAGCGUGGCAAAGUGGCUGUGGCUGGACUGCCUCUCUGGAUUCCUCGUCACUCAGCAGGGCAUCUCUGAGAGAAACGCC [A59G A92G U143C] | 0.15
UACGUAGGUGGUUUUCCCCUGAUAGUGCUAAGGGGGCCUGGAAGUUUGGACUGGGCAGGGCUCAACACAGCGUGGCAAAGUGGCUGUGGCUAGACUGCCUCUCUGGUUUCCUCGUCACUCAGCAGGGCAUCUCUGAGAGAAGUGCC [A59G A107U A142G] | 0.07
UACGUAGGUGGUUUUCCCCUGAUAGUGCUAAGGGGGCCUGGAAGUUUGGACUGGGCAGUGCUCAACGCAGCGUGGCAAAGUGGCUGUGGCUAGACUGCCUCUCUGGAUUCCUCGCCACUCAGCAGGGCAUCUCUGAGAGAAAUGCC [A59U A67G U115C] | 0
